Laboratory results reported in the GPR68 mutational scans of Howard et al. (2025).
Scores with a large standard error are left out. Two further conditions of the source, in which the scores hardly spread, are not listed. Names with del lack the residues named; names with ins carry added residues between the positions named. For part of these data: The concentration of ogerin is not given here.

B1: GPR68, Q15743 (parent)
chain: MGNITADNSSMSCTIDHTIHQTLAPVVYVTVLVVGFPANCLSLYFGYLQIKARNELGVYLCNLTVADLFYICSLPFWLQYVLQHDNWSHGDLSCQVCGILLYENIYISVGFLCCISVDRYLAVAHPFRFHQFRTLKAAVGVSVVIWAKELLTSIYFLMHEEVIEDENQHRVCFEHYPIQAWQRAINYYRFLVGFLFPICLLLASYQGILRAVRRSHGTQKSRKDQIQRLVLSTVVIFLACFLPYHVLLLVRSVWEASCDFAKGVFNAYHFSLLLTSFNCVADPVLYCFVSETTHRDLARLRGACLAFLTCSRTGRAREAYPLGAPEASGKSGAQGEEPELLTKLHPAFQTPNSPGSGGFPTGRLA

Columns and labels:
[1] = variants of: B1; assay: cAMP reporter score (Enrich2 score, wild type = 0); higher = more signal; HEK293T, FACS bins
[2] = variants of: B1; assay: surface expression score (Enrich2 score, wild type = 0); higher = more signal; HEK293T, FACS bins

Row | Variant | cAMP reporter score ([1]; pH 6) | cAMP reporter score ([1]; pH 6, modulator: ogerin) | cAMP reporter score ([1]; pH 6.5, modulator: ogerin) | surface expression score [2]
1 | L121_A122insGSG | -0.117 | -0.667 | -0.333 | -0.318
2 | MGNITADNSSMSCTIDHTIHQTLAPVVYVTVLVVGFPANCLSLYFGYLQIKARNELGVYLCNLTVADLFYICSLPFWLQYVLQHDNWSHGDLSCQVCGILLYENIYISVGFLCCISVDRYLAVIHPFRFHQFRTLKAAVGVSVVIWAKELLTSIYFLMHEEVIEDENQHRVCFEHYPIQAWQRAINYYRFLVGFLFPICLLLASYQGILRAVRRSHGTQKSRKDQIQRLVLSTVVIFLACFLPYHVLLLVRSVWEASCDFAKGVFNAYHFSLLLTSFNCVADPVLYCFVSETTHRDLARLRGACLAFLTCSRTGRAREAYPLGAPEASGKSGAQGEEPELLTKLHPAFQTPNSPGSGGFPTGRLA [A124I] | 0.869 | 1.86 | -0.435 | -0.403
3 | MGNITADNSSMSCTIDHTIHQTLAPVVYVTVLVVGFPANCLSLYFGYLQIKARNELGVYLCNLTVADLFYICSLPFWLQYVLQHDNWSHGDLSCQVCGILLYENIYISVGFLCCISVDRYLAVAHPFAFHQFRTLKAAVGVSVVIWAKELLTSIYFLMHEEVIEDENQHRVCFEHYPIQAWQRAINYYRFLVGFLFPICLLLASYQGILRAVRRSHGTQKSRKDQIQRLVLSTVVIFLACFLPYHVLLLVRSVWEASCDFAKGVFNAYHFSLLLTSFNCVADPVLYCFVSETTHRDLARLRGACLAFLTCSRTGRAREAYPLGAPEASGKSGAQGEEPELLTKLHPAFQTPNSPGSGGFPTGRLA [R128A] | -0.607 | 0.64 | 0.088 | -1.34
4 | F127_R128insGSG | -0.536 | -1.38 | -0.434 | 
